# Reference: PubChem BioAssay AID624330 (Southern Research Specialized Biocontainment Screening …, 2012)
# Among all 340,000 compounds or so, about 2,100 (0.62%) were called active. Inconclusive means that the source gave no clear call. Such entries were picked first, then a sample of the others.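 How the source made its calls: active means first-screen hits whose inhibition reached a set limit at any dose in the follow-up dose series; inconclusive means inhibition above the set first-screen limit but never retested; inactive means the rest.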
# Biological target: Rac GTPase-activating protein 1 (Homo sapiens) (UniProt Q9H0H5)
# UniProt Q9H0H5, sequence (Q9H0H5 whole entry, looked up): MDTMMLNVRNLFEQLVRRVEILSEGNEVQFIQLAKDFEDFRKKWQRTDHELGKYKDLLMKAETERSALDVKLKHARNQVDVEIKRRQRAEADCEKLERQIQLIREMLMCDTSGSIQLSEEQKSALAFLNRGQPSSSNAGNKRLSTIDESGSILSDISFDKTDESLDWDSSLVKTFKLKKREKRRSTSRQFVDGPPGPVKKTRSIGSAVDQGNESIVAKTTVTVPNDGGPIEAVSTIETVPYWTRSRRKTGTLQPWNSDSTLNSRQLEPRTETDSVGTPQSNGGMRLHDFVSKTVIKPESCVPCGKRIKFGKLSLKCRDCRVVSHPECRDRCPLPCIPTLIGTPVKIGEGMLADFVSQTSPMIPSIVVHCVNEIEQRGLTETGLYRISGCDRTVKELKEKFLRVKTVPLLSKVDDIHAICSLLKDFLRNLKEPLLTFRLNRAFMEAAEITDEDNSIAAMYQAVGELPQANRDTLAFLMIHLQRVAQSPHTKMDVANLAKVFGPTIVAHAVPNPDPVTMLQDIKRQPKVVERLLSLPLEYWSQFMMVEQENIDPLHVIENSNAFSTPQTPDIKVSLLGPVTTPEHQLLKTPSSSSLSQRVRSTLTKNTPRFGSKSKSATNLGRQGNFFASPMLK
# Test: blockers of MgcRacGAP-driven Rac1 GTP hydrolysis – biochemical, ADP Hunter fluorescence, primary and confirmatory, confirmation (AID 624330);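 further: fluorescence reports GDP produced by GAP-driven GTP hydrolysis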
# Conditions: MgcRacGAP-stimulated Rac1 GTP hydrolysis, at 30 µM, stronger effect = higher value, GST-tagged Rac1 F28L mutant substrate
row,SMILES,inhibition
1,Cc1ccc(S(=O)(=O)N(C)C)cc1NC(=S)Nc1ccc2[nH]c(=O)[nH]c2c1,inconclusive: 33.7%
2,O=C(c1ccc2ncsc2c1)N1CCN(c2ccc(O)cc2)CC1,inconclusive: 104%
3,O=C(CCC(=O)Nc1ccc(F)cc1)N/N=C/c1ccc(O)cc1O,inconclusive: 33.7%
4,COc1cc(OC)c(-c2c3cc(O)c(=O)cc-3oc3cc(O)c(O)cc23)cc1OC,inconclusive: 53.8%
5,N#C/C(=C\c1ccc(O)c(O)c1)C(=O)NCCc1ccccc1,inconclusive: 82.7%
6,CC1CC(=O)c2c(cc3c(-c4c(O)cc(O)c5c(O)c6c(cc45)OC(C)CC6=O)c(O)cc(O)c3c2O)O1 (configuration not stated),inconclusive: 37.3%
7,COc1cc(CNc2ccc(C)c(C)c2)cc(OC)c1OC,inconclusive: 33.3%
8,COc1ccccc1CNC(=O)CCSCc1cccc(Cl)c1,inactive: -0.5%
9,COC(=O)c1ccc2nc(C)c(C)nc2c1,inactive: 2.34%
10,O=c1cc(-c2ccc(O)c(O)c2)oc2c1ccc1ccccc12,inconclusive: 33%
11,O=C(CN1C(=O)/C(=C/c2ccco2)SC1=S)Nc1ccc(C(=O)O)c(O)c1,inconclusive: 64.7%
12,Cc1ccc(P(=O)(O)c2ccc(C)cc2)cc1,inactive: 8.6%
13,CCOc1ccc(NC(=O)COc2cccc3c2CCN(Cc2cccnc2)C3=O)cc1,inactive: 0.41%
14,CC(=O)N1c2ccc(S(=O)(=O)N3CCCCC3)cc2CC1C(=O)NCc1ccc(N(C)C)cc1 (configuration not stated),inactive: 3.76%
15,O=C1c2ccccc2C(=O)N1CCc1c[nH]c2ccc(O)cc12,inconclusive: 36.2%
16,CCN(CC)c1ccc(NC(=O)CN2CCN(c3nc(C)cc(C)n3)CC2)cc1,inconclusive: 44.2%
17,COc1ccccc1/C=N/Nc1cc(C)nc2ccc(C)cc12,inactive: 14.4%
18,Cc1ccc(NC(=O)Cn2sc3ccccc3c2=O)cc1,inconclusive: 34.7%
19,COc1ccc(/C=C(\C#N)C(=O)c2c(C)[nH]c3ccccc23)cc1OC,inactive: 10.7%
20,CCOC(=O)CNc1c(-c2ccc(O)cc2)nc2ccccn12,inconclusive: 63.2%
21,COc1ccc(CCNC(=O)C2CCN(S(=O)(=O)c3ccc(C)cc3)CC2)cc1OC,inactive: -4.11%
22,COc1cc(N)ccc1Cc1ccc(N)cc1OC,inconclusive: 63%
23,Cn1c(-c2ccccc2)c(C(=O)CCl)c2ccccc21,inactive: -6.3%
24,CCOc1ccc(N(CC(=O)Nc2cc(Cl)ccc2C)S(C)(=O)=O)cc1,inactive: -0.16%
25,CCOC(=O)C1CCCN(C2=NC(=O)/C(=C/c3ccc(N(C)C)cc3)S2)C1 (configuration not stated),inactive: 3.86%
26,Cc1nc(C)c(-c2csc(Nc3ccc(N)cc3)n2)s1,inconclusive: 68.2%
27,CSc1ccc(CN2CCSCC2)cc1,inconclusive: 32.1%
